{"source": "paper PMC9405123", "about": "“Design, Synthesis and Mechanistic Studies of Novel Isatin-Pyrazole Hydrazone Conjugates as Selective and Potent Bacterial MetAP Inhibitors” (Antibiotics, 2022)", "key": {"HK41": {"test_system": "HK41", "assay": "MBC on environmental MDR isolate"}, "B. subtilis": {"test_system": "B. subtilis", "assay": "Minimum bactericidal concentration", "format": "cell-based, Bacillus subtilis"}, "SpMetAP1a": {"biological_target": "SpMetAP1a (Streptococcus pneumoniae, UniProt Q8DPV1)", "assay": "MetAP enzyme inhibition, Morrison Ki (Met-AMC fluorescence)", "format": "biochemical", "conditions": "Morrison Ki method"}, "S. aureus": {"test_system": "S. aureus", "assay": "Growth inhibition screening (broth dilution)", "format": "cell-based, Staphylococcus aureus", "protocol": "(§1) In vitro screening of the compounds (PS1–14) was performed to assess the antibacterial activity against three Gram-positive (Staphylococcus aureus, Enterococcus faecalis and Bacillus subtilis,) and three Gram-negative (Pseudomonas aeruginosa, Klebsiella pneumonia and Escherichia coli) bacterial strains using the standard NCCLS broth dilution assay. The study’s standard drugs were ciprofloxacin (CIP) and ampicillin (AMP). Compounds were dissolved in a polar solvent (DMSO) and distributed into a 96-well plate in 200 µL of nutrient broth medium, with a final concentration of the compounds […] in each well. The bacterial cells (about 2.5 × 10^5 cells/mL) were inoculated into each well and incubated at 37 °C overnight. After incubation, the growth was measured by turbidity of the culture at 590 nm by spectrophotometer."}, "JST68": {"test_system": "JST68", "assay": "MIC on environmental MDR isolate (microdilution)", "conditions": "Escherichia coli"}, "P. aeruginosa [1]": {"test_system": "P. aeruginosa", "assay": "Time-kill curve assay", "format": "cell-based, Pseudomonas aeruginosa", "protocol": "(§2) A time–kill curve study was performed against bacterial strains (E. coli, E. faecalis, K. pneumonia and P. aeruginosa) to determine whether compound PS9 is bactericidal or bacteriostatic. MIC, 2MIC and 4MIC concentrations were employed for the time–kill assay as explained by Ali et al.. Untreated bacterial cells were used as a control. 100 µL aliquot was taken from each flask at regular intervals. An aliquot was further diluted in phosphate buffer saline solution and from each concentration 50 µL aliquot was inoculated on a nutrient agar plate and spread. Colonies were counted after the incubation of the plate at 37 °C. For each strain, the average (mean) colony count data (log10 CFU/mL) was plotted against time."}, "P. aeruginosa [2]": {"test_system": "P. aeruginosa", "assay": "Minimum inhibitory concentration (broth dilution)", "format": "cell-based", "conditions": "Pseudomonas aeruginosa, alone"}, "E. faecalis [3]": {"test_system": "E. faecalis", "assay": "Growth inhibition screening (broth dilution)", "format": "cell-based, Enterococcus faecalis", "protocol": "as §1"}, "E. coli": {"test_system": "E. coli", "assay": "Combination study with AMP or CIP"}, "SD6": {"test_system": "SD6", "assay": "MIC on environmental MDR isolate (microdilution)", "conditions": "isolate SD6 E. coli"}, "[4]": {"test_system": "human red blood cells (hRBCs)", "assay": "Hemolytic activity", "format": "cell-based", "conditions": "up to 31.25 µg/mL; 37 °C, 2 h", "protocol": "The compound PS9 was evaluated for hemolytic effect on human RBCs. In brief, RBCs suspension 10% (v/v) cleaned with 1 × PBS and resuspended again in 1 × PBS (pH 7.4). […] The samples were centrifuged and absorbance of the supernatant was taken at 415 nm to obtain the percentage of RBCs lysis. Triton X-100 with 1% (v/v) was used as a positive control. Percentage of RBCs lysis was calculated as:% RBCs lysis = (OD415nm sample − OD415nm PBS)/(OD415nm Triton X-100 1% − OD415nm PBS)(1)"}, "E. faecalis [5]": {"test_system": "E. faecalis", "assay": "Combination study with AMP or CIP"}, "HK43": {"test_system": "HK43", "assay": "MBC on environmental MDR isolate"}, "P. aeruginosa [6]": {"test_system": "P. aeruginosa", "assay": "Combination study with AMP or CIP"}, "SD5": {"test_system": "SD5", "assay": "MIC on environmental MDR isolate (microdilution)", "conditions": "isolate SD5 E. coli"}, "K. pneumoniae [7]": {"test_system": "K. pneumoniae", "assay": "Growth kinetics", "format": "cell-based, Klebsiella pneumonia", "protocol": "Bacterial strains were tested as mentioned in Habib et al.. Briefly, ½ MIC, MIC and 2MIC values of PS9 were taken to assess the growth of bacterial strains whereas untreated cells and media were taken as positive and negative control, respectively."}, "K. pneumoniae [8]": {"test_system": "K. pneumoniae", "assay": "Minimum inhibitory concentration (broth dilution)", "format": "cell-based, Klebsiella pneumonia", "conditions": "Klebsiella pneumoniae, alone"}, "K. pneumoniae [9]": {"test_system": "K. pneumoniae", "assay": "Time-kill curve assay", "format": "cell-based, Klebsiella pneumonia", "protocol": "as §2"}, "K. pneumoniae [10]": {"test_system": "K. pneumoniae", "assay": "Minimum bactericidal concentration", "format": "cell-based, Klebsiella pneumonia", "conditions": "Klebsiella pneumoniae"}, "LG20": {"test_system": "LG20", "assay": "MBC on environmental MDR isolate", "conditions": "Enterobacter"}, "JST71": {"test_system": "JST71", "assay": "MIC on environmental MDR isolate (microdilution)", "conditions": "isolate JST71 Enterobacter sp."}}, "data": [{"compound": "O=C1Nc2ccc(F)cc2/C1=N\\NC(=O)c1cc(-c2cccc(Br)c2)n[nH]1", "note": "[PS9, (E)-3-(3-Bromophenyl)-N′-(5-Fluoro-2-Oxoindolin-3-Ylidene)-1H-Pyrazole-5-Carbohydrazide]", "values": [{"measurement": "MBC", "setting": "HK41; Enterobacter cloacae", "result": 64, "unit": "mg/L"}, {"measurement": "MBC and MIC ratio", "setting": "HK41; isolate HK41", "result": 2}, {"measurement": "MBC/MIC Ratio (R*)", "setting": "B. subtilis; B. subtilis", "result": 4}, {"measurement": "MBC", "setting": "B. subtilis; Bacillus subtilis", "result": 128, "unit": "mg/L"}, {"measurement": "Ki", "setting": "SpMetAP1a", "result": "0.37 ± 0.08", "unit": "µM"}, {"measurement": "inhibition at 250 µg/mL", "setting": "S. aureus; Staphylococcus aureus", "result": "≥ 94", "unit": "%"}, {"measurement": "% Growth Inhibition at 250 µg/mL", "setting": "S. aureus; listed as C00009", "result": 100, "unit": "%"}, {"measurement": "MIC", "setting": "JST68", "result": 32, "unit": "mg/L"}, {"measurement": "killing (log10 CFU/mL with time)", "setting": "P. aeruginosa [1]; 4MIC, after 16 h", "result": "significant eradication"}, {"measurement": "killing (log10 CFU/mL with time)", "setting": "P. aeruginosa [1]; MIC, till 16 h", "result": "no 100% eradication"}, {"measurement": "MIC", "setting": "P. aeruginosa [2]", "result": 8, "unit": "mg/L"}, {"measurement": "inhibition at 250 µg/mL", "setting": "E. faecalis [3]; Enterococcus faecalis", "result": "≥ 94", "unit": "%"}, {"measurement": "% Growth Inhibition at 250 µg/mL", "setting": "E. faecalis [3]; listed as C00009", "result": 100, "unit": "%"}, {"measurement": "MIC in Combination", "setting": "E. coli; combination PS9 + AMP", "result": 4, "unit": "mg/L"}, {"measurement": "MIC in Combination", "setting": "E. coli; combination PS9 + CIP", "result": 8, "unit": "mg/L"}, {"measurement": "FICI", "setting": "E. coli; combination with AMP", "result": 0.50}, {"measurement": "FICI", "setting": "E. coli; combination with CIP", "result": 0.50}, {"measurement": "MIC", "setting": "SD6", "result": ">1024", "unit": "mg/L"}, {"measurement": "lysis in RBCs", "setting": "[4]", "result": "no significant lysis"}, {"measurement": "MIC in Combination", "setting": "E. faecalis [5]; combination PS9 + AMP", "result": 0.5, "unit": "mg/L"}, {"measurement": "MIC in Combination", "setting": "E. faecalis [5]; combination PS9 + CIP", "result": 8, "unit": "mg/L"}, {"measurement": "FICI", "setting": "E. faecalis [5]; combination with AMP", "result": 0.09}, {"measurement": "FICI", "setting": "E. faecalis [5]; combination with CIP", "result": 2.00}, {"measurement": "MBC", "setting": "HK43; Exiguobacterium mexicanum", "result": 32, "unit": "mg/L"}, {"measurement": "MBC and MIC ratio", "setting": "HK43; isolate HK43", "result": 2}, {"measurement": "MIC in Combination", "setting": "P. aeruginosa [6]; combination PS9 + AMP", "result": 1, "unit": "mg/L"}, {"measurement": "MIC in Combination", "setting": "P. aeruginosa [6]; combination PS9 + CIP", "result": 2, "unit": "mg/L"}, {"measurement": "FICI", "setting": "P. aeruginosa [6]; combination with AMP", "result": 0.37}, {"measurement": "FICI", "setting": "P. aeruginosa [6]; combination with CIP", "result": 0.28}, {"measurement": "MIC", "setting": "SD5", "result": ">1024", "unit": "mg/L"}, {"measurement": "growth", "setting": "K. pneumoniae [7]; 2MIC", "result": "no growth was observed in both cultures at 2MIC concentration till 24 h"}, {"measurement": "growth", "setting": "K. pneumoniae [7]; MIC", "result": "no significant growth was found at MIC up to 10 h"}, {"measurement": "MIC", "setting": "K. pneumoniae [8]", "result": 8, "unit": "mg/L"}, {"measurement": "killing (log10 CFU/mL with time)", "setting": "K. pneumoniae [9]; 4MIC, after 16 h", "result": "significant eradication"}, {"measurement": "killing (log10 CFU/mL with time)", "setting": "K. pneumoniae [9]; MIC, till 16 h", "result": "no 100% eradication"}, {"measurement": "MBC", "setting": "K. pneumoniae [10]", "result": 8, "unit": "mg/L"}, {"measurement": "MBC", "setting": "LG20", "result": 16, "unit": "mg/L"}, {"measurement": "MIC", "setting": "JST71", "result": ">1024", "unit": "mg/L"}]}]}
